# Measured values published in the supplement of paper PMC12217912.
# Some of the results follow. The full chains were built here from the parent and the listed change. Inactive controls read about 0.05.
# B1: TEV protease; numbered along this chain (parent)
# chain: MGESLFKGPRDYNPISSSICHLTNESDGHTTSLYGIGFGPFIITNKHLFRRNNGTLVVQSLHGVFKVKDTTTLQQHLVDGRDMIIIRMPKDFPPFPQKLKFREPQREERICLVTTNFQTKSMSSMVSDTSCTFPSGDGIFWKHWIQTKDGQCGSPLVSTRDGFIVGIHSASNFTNTNNYFTSVPKNFMELLTNQEAQQWVSGWRLNADSVLWGGHKVFMVKPEEPFQPVKEATQL
# Variants of: B1
# Assay: raw area under fraction-flipped curve 0-4 h after induction (AUC4h, not background-subtracted), DNA-recorder readout of cleavage of the substrate (dimensionless); higher = more cleavage of the substrate by the protease variant
# Conditions: temperature: 34 °C; time window: 0-4 h after rhamnose induction
# Experimental: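 In vivo DNA recorder in E. coli TOP10(DE3) ΔrhaA at 34 °C. Each TEVp single-site mutant (parent TEVp 0) is paired with a single-site variant of the 7-mer TEVs (canonical ENLYFQ|S). The substrate sits between flexible linkers in a Bxb1-sfGFP-TEVs-SsrA fusion, so cleavage stabilises Bxb1 and speeds flipping of a recombination array, read by NGS. The value is the raw area under the fraction-flipped curve over 0-4 h after rhamnose induction (AUC4h), with ≥20 reads per time point. It is not background-subtracted; inactive controls average about 0.047.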
# 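Note: Bxb1 expression induced with 0.2% (w/v) L-rhamnose at OD600 near 0.5, cultures sampled hourly, flipped fraction per protease–substrate barcode pair counted by paired-end Illumina sequencing.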
Variant,area with substrate ENLYFQA,area with substrate ENLYFQC,area with substrate ENLYFQE,area with substrate ENLYFQF,area with substrate ENLYFQG,area with substrate ENLYFQH,area with substrate ENLYFQI,area with substrate ENLYFQL,area with substrate ENLYFQM,area with substrate ENLYFQN,area with substrate ENLYFQP,area with substrate ENLYFQQ,area with substrate ENLYFQR,area with substrate ENLYFQS,area with substrate ENLYFQT,area with substrate ENLYFQV,area with substrate ENLYFQW,area with substrate ENLYFQY,area with substrate ENLYFQD,area with substrate ENLYFQK
MGESLFKGPRDYNPISSSICHLTNESDGHTTSLYGIGFGPFIITNKFLFRRNNGTLVVQSLHGVFKVKDTTTLQQHLVDGRDMIIIRMPKDFPPFPQKLKFREPQREERICLVTTNFQTKSMSSMVSDTSCTFPSGDGIFWKHWIQTKDGQCGSPLVSTRDGFIVGIHSASNFTNTNNYFTSVPKNFMELLTNQEAQQWVSGWRLNADSVLWGGHKVFMVKPEEPFQPVKEATQL [H47F],0.0563,0.0549,0.0445,0.0533,0.0607,0.0912,0.0553,0.0604,0.0602,0.0575,0.0287,0.0752,0.0622,0.059,0.0672,0.0509,0.0576,0.0519,–,–
MGESLFKGPRDYNPISSSICHLTNESDGHTTSLYGIGFGPFIITNKDLFRRNNGTLVVQSLHGVFKVKDTTTLQQHLVDGRDMIIIRMPKDFPPFPQKLKFREPQREERICLVTTNFQTKSMSSMVSDTSCTFPSGDGIFWKHWIQTKDGQCGSPLVSTRDGFIVGIHSASNFTNTNNYFTSVPKNFMELLTNQEAQQWVSGWRLNADSVLWGGHKVFMVKPEEPFQPVKEATQL [H47D],0.0799,0.0609,0.0517,0.0451,–,0.0534,–,0.0535,–,0.0523,–,–,0.0484,0.0601,0.0472,0.0498,–,0.04,0.0598,0.0602
MGESLFKGPRDYNPISSSICHLTNESDGHTTSLYGIGFGPFIITNKNLFRRNNGTLVVQSLHGVFKVKDTTTLQQHLVDGRDMIIIRMPKDFPPFPQKLKFREPQREERICLVTTNFQTKSMSSMVSDTSCTFPSGDGIFWKHWIQTKDGQCGSPLVSTRDGFIVGIHSASNFTNTNNYFTSVPKNFMELLTNQEAQQWVSGWRLNADSVLWGGHKVFMVKPEEPFQPVKEATQL [H47N],0.0601,0.0619,–,–,0.0499,0.032,0.0532,0.0529,0.0472,0.0621,–,–,0.0664,0.0605,0.0535,0.0565,0.0612,–,0.0641,0.0461
MGESLFKGPRDYNPISSSICHLTNESDGHTTSLYGIGFGPFIITNKYLFRRNNGTLVVQSLHGVFKVKDTTTLQQHLVDGRDMIIIRMPKDFPPFPQKLKFREPQREERICLVTTNFQTKSMSSMVSDTSCTFPSGDGIFWKHWIQTKDGQCGSPLVSTRDGFIVGIHSASNFTNTNNYFTSVPKNFMELLTNQEAQQWVSGWRLNADSVLWGGHKVFMVKPEEPFQPVKEATQL [H47Y],0.0495,0.0568,0.0452,–,0.0563,0.0557,0.0559,0.0438,0.0627,0.0573,0.0547,–,0.0586,0.058,0.0527,–,0.0664,–,0.0622,0.0565
MGESLFKGPRDYNPISSSICHLTNESDGHTTSLYGIGFGPFIITNKKLFRRNNGTLVVQSLHGVFKVKDTTTLQQHLVDGRDMIIIRMPKDFPPFPQKLKFREPQREERICLVTTNFQTKSMSSMVSDTSCTFPSGDGIFWKHWIQTKDGQCGSPLVSTRDGFIVGIHSASNFTNTNNYFTSVPKNFMELLTNQEAQQWVSGWRLNADSVLWGGHKVFMVKPEEPFQPVKEATQL [H47K],0.0587,0.049,–,0.0441,0.0628,0.0691,0.0603,0.0636,0.056,0.0606,0.0573,–,0.0601,0.0635,0.0699,0.0508,0.0621,–,0.0782,0.0584
MGESLFKGPRDYNPISSSICHLTNESDGHTTSLYGIGFGPWIITNKHLFRRNNGTLVVQSLHGVFKVKDTTTLQQHLVDGRDMIIIRMPKDFPPFPQKLKFREPQREERICLVTTNFQTKSMSSMVSDTSCTFPSGDGIFWKHWIQTKDGQCGSPLVSTRDGFIVGIHSASNFTNTNNYFTSVPKNFMELLTNQEAQQWVSGWRLNADSVLWGGHKVFMVKPEEPFQPVKEATQL [F41W],0.0974,0.0793,0.0616,0.0642,0.0569,0.0523,0.0542,0.0584,–,0.0508,0.0501,0.0728,0.0723,0.0795,0.0606,0.0397,0.0714,0.0636,0.0492,0.0666
MGESLFKGPRDYNPISSSICHLTNESDGHTTSLYGIGFGPFIITNKHLGRRNNGTLVVQSLHGVFKVKDTTTLQQHLVDGRDMIIIRMPKDFPPFPQKLKFREPQREERICLVTTNFQTKSMSSMVSDTSCTFPSGDGIFWKHWIQTKDGQCGSPLVSTRDGFIVGIHSASNFTNTNNYFTSVPKNFMELLTNQEAQQWVSGWRLNADSVLWGGHKVFMVKPEEPFQPVKEATQL [F49G],0.049,0.0604,–,0.0555,0.0542,0.0595,0.071,0.0536,0.0486,0.0544,–,0.0589,0.0516,0.0571,0.0531,0.0506,0.0518,–,0.0494,0.0631
MGESLFKGPRDYNPISSSICHLTNESDGHTTSLYGIGFGPFIITNKHLKRRNNGTLVVQSLHGVFKVKDTTTLQQHLVDGRDMIIIRMPKDFPPFPQKLKFREPQREERICLVTTNFQTKSMSSMVSDTSCTFPSGDGIFWKHWIQTKDGQCGSPLVSTRDGFIVGIHSASNFTNTNNYFTSVPKNFMELLTNQEAQQWVSGWRLNADSVLWGGHKVFMVKPEEPFQPVKEATQL [F49K],0.0582,0.0678,–,0.0603,0.0596,–,0.0532,0.0558,0.0763,0.0454,0.0452,–,0.0592,0.0555,0.05,0.0643,0.0651,0.0599,0.0523,0.088
